{"source": "PubChem BioAssay AID651820", "about": "(National Center for Advancing Translational Sciences (NCATS), 2012)", "note": "The whole screen tested about 340,000 compounds, of which about 12,000 (3.5%) were called active. This list was built around the results that the source calls inconclusive (neither active nor inactive); the mix of calls is not that of the screen. Calls come from the whole dose curve; as a rule, active = well fitted inhibition curve with a large enough effect; inconclusive = small, poorly fitted or top-dose-only effect, or another doubt; inactive = no such curve, though single readings can be large or run the other way. No potency is given beside an inconclusive call; the fits are too rough. % is set by controls: 0 for no effect and ±100 for the full control effect; potency is the fitted concentration of half-maximal effect; tags give direction and shape of the fitted curve.", "data": [{"test": "qHTS Assay for Inhibitors of Hepatitis C Virus (HCV)", "conditions": "Huh7.5.1 HCVcc-Cre (HCVcc is cell-culture hepatitis C virus) infection, luciferase reporter, 44 h; activity change, negative = inhibition: at 41.8 µM (top of the series) unless noted", "how_it_was_run": "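Cells (1,000/well) were plated 4 h before compound, then infected with HCVcc-Cre virus (~0.5 moi). After 44 h further culture, infection was read as luciferase luminescence following a 15 min substrate incubation at room temperature.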", "values": [{"smiles": "Cc1nc(C(=O)NNC(=O)c2c(-c3c(Cl)cccc3Cl)noc2C)cs1", "Potency": "inconclusive [inhibitor, single point]"}, {"smiles": "COC(=O)Cc1c(C)c2ccc(OC(=O)c3ccccc3)cc2oc1=O", "Potency": "inconclusive [inhibitor, single point]"}, {"smiles": "COc1ccc(C)cc1NC(=O)c1ccc(OC(F)F)cc1", "Potency": "inconclusive [inhibitor, single point]"}, {"smiles": "CCCN1CCN(CCCNC(=O)C2CCN(c3nnc(-n4cccc4)s3)CC2)CC1", "Potency": "inconclusive [inhibitor, single point]"}, {"smiles": "FCCCOc1ccc(-c2nccc(-c3ccc(F)cc3)n2)cc1", "Potency": "inconclusive [inhibitor, partial curve]"}, {"smiles": "O=C1CC(=Nc2ccccc2)NN1c1ccccc1", "activity change, negative = inhibition": "inactive: -29.1%"}, {"smiles": "Cc1ccc(S(=O)(=O)NC(=O)Nc2ccc(N(C)C)cc2)cc1", "Potency": "inconclusive [inhibitor, single point]"}, {"smiles": "Cc1ccc(S(=O)(=O)N(C)C)cc1NC(=O)c1cc(-c2ccco2)nc2ccccc12", "Potency": "inconclusive [inhibitor, partial curve, poor fit]"}, {"smiles": "CCOc1cc(CNc2ccccc2)cc(Br)c1OCc1ccccc1F", "Potency": "inconclusive [inhibitor, single point]"}, {"smiles": "CN=c1scc(-c2c[nH]c3ccccc23)n1C", "activity change, negative = inhibition": "inactive: 23.4%"}, {"smiles": "O=c1c2ccccc2nc(/C=C/c2ccc([N+](=O)[O-])o2)n1CCCO", "Potency": "active: 2.24 µM"}, {"smiles": "Cc1cc(C)nc(/N=C(\\N)Nc2ccc(C)c([N+](=O)[O-])c2)n1", "Potency": "inconclusive [inhibitor, single point]"}, {"smiles": "O=S(=O)(c1ccc2ccccc2c1)n1cnc2ccccc21", "Potency": "inconclusive [inhibitor, single point]"}, {"smiles": "CCOC(=O)C1CCCN(C(c2ccccn2)c2c(C)[nH]c3ccccc23)C1", "note": "(stereo not given)", "activity change, negative = inhibition": "inactive: 22.3%"}, {"smiles": "COc1ccc(C(=O)c2ccc(Cl)c([N+](=O)[O-])c2)cc1", "Potency": "inconclusive [inhibitor, single point]"}, {"smiles": "COc1ccc(C(=O)Nc2ccc(C(=O)Nc3cccc(C)c3)cc2)cc1", "Potency": "inconclusive [inhibitor, partial curve]"}, {"smiles": "COC(=O)C1=C(c2cc3ccccc3s2)C[C@@H]2CC[C@H]1N2C(=O)N1CCOCC1", "Potency": "inconclusive [inhibitor, single point]"}, {"smiles": "COc1cc(OC)cc(C(=O)NCCn2ccc3ccccc32)c1", "Potency": "inconclusive [inhibitor, single point]"}, {"smiles": "COc1c(C)c2c(c(O)c1C/C=C(\\C)CCC(=O)O)C(=O)OC2", "Potency": "active: 2 µM"}, {"smiles": "CCC(=O)Nc1ccc(C2C(=O)c3ccccc3C2=O)cc1", "Potency": "active: 2.82 µM"}, {"smiles": "Cc1cccc(NC(=O)CCC2CCN(C(=O)c3ccc(C)s3)CC2)c1", "Potency": "inconclusive [inhibitor, single point]"}, {"smiles": "COC(=O)C1=C(C)NC(C)=C(C(=O)OCC2CCCO2)C1c1cccc(Br)c1", "note": "(stereo not given)", "activity change, negative = inhibition": "inactive: -9.2%"}, {"smiles": "O=C1c2ccccc2C(=O)N1c1nc(-c2cccs2)cs1", "activity change, negative = inhibition": "inactive: -1.96%"}, {"smiles": "COc1ccc(OCCNC(=O)c2ccccc2OCC(=O)N2CCCCC2)cc1", "Potency": "inconclusive [inhibitor, partial curve, poor fit]"}, {"smiles": "CC(C)Cc1ccc(/C=C/C(=O)NC2CC2)cc1", "activity change, negative = inhibition": "inactive: 15.4%"}, {"smiles": "CCNC(=O)c1cccc(NC(=O)c2cc(C3CC3)nc3c2cnn3C(C)C)c1", "Potency": "inconclusive [inhibitor, partial curve, poor fit]"}, {"smiles": "COc1nc(-c2ccc(Cl)cc2)ccc1-c1noc(-c2ccco2)n1", "activity change, negative = inhibition": "inactive: -3.59%"}, {"smiles": "O=C(CSc1ccc2nnc(-c3ccc(F)cc3)n2n1)N1CCCc2ccccc21", "Potency": "inconclusive [inhibitor, single point]"}, {"smiles": "CC(=O)c1cccc(NC(=O)N2CCC(C(=O)c3ccc(F)cc3)CC2)c1", "Potency": "inconclusive [inhibitor, single point]"}, {"smiles": "CC(C)Cn1c(N)c(C(=O)COC(=O)c2cccc(F)c2)c(=O)n(C)c1=O", "Potency": "inconclusive [inhibitor, partial curve]"}, {"smiles": "CCOc1ccccc1N1CC(C(=O)NCCC2=CCCCC2)CC1=O", "note": "(stereo not given)", "Potency": "inconclusive [inhibitor, partial curve, poor fit]"}, {"smiles": "Fc1ccc(/C=N/Nc2nnnn2-c2ccccc2)cc1", "activity change, negative = inhibition": "inactive: 2.3%"}, {"smiles": "CCOc1ccc(NC(=O)[C@@H](NC(=O)c2ccccc2)[C@@H](C)CC)cc1", "Potency": "inconclusive [inhibitor, partial curve, poor fit]"}, {"smiles": "Cc1ccc(OCCNC(=O)CNC(=O)c2ccc(Cl)c([N+](=O)[O-])c2)cc1", "Potency": "inconclusive [inhibitor, single point]"}, {"smiles": "COc1cccc(-c2cc(C(=O)Nc3c(C)n(C)n(-c4ccccc4)c3=O)no2)c1", "Potency": "inconclusive [inhibitor, single point]"}, {"smiles": "CCc1ccc(CNC(=O)C2CCN(S(=O)(=O)N3CCC(C)CC3)CC2)cc1", "Potency": "inconclusive [inhibitor, single point]"}, {"smiles": "CCCCN(C)C(=O)C1CCN(c2ccc(S(=O)(=O)N3CCOCC3)cc2[N+](=O)[O-])CC1", "Potency": "inconclusive [inhibitor, single point]"}, {"smiles": "COCCn1c(=S)[nH]c2cc(C(=O)N3CC(C)CC(C)C3)ccc2c1=O", "note": "(stereo not given)", "Potency": "inconclusive [inhibitor, single point]"}, {"smiles": "N#Cc1nc(-c2ccc(OCc3ccccc3)cc2)oc1NCc1cccnc1", "Potency": "inconclusive [inhibitor, single point]"}, {"smiles": "CCCCCOCC1CC(C/C(C)=N/NC(N)=S)C(=O)O1", "note": "(stereo not given)", "Potency": "inconclusive [inhibitor, partial curve]"}, {"smiles": "COc1ccc(C(=O)N/C(=C\\c2ccco2)C(=O)NCc2ccco2)cc1", "activity change, negative = inhibition": "inactive: 20.6%"}, {"smiles": "CCn1c2c(c3ccc(OC)cc31)CCCC2=O", "Potency": "active: 1.26 µM"}, {"smiles": "COc1ccc(CNC(=O)COC(=O)c2cccs2)cc1", "activity change, negative = inhibition": "inactive: 13.5%"}, {"smiles": "O=C(Nc1n[nH]c(=S)s1)c1ccc2ccccc2c1", "activity change, negative = inhibition": "inactive: 15.1%"}, {"smiles": "COc1cccc(NC(=O)Cn2cnc3sc(C)c(S(=O)(=O)N4CCCCC4)c3c2=O)c1", "Potency": "inconclusive [inhibitor, single point]"}]}]}
